Laboratory results: the antibiotic and cytotoxicity screens of Wong et al. (2023)
This is one part of the list.

Tested on: HSkMC (human skeletal muscle cells)
Assay: cytotoxicity call (relative viability < 0.9)
Settings: 10 µM

| SMILES | cytotoxicity call |
| --- | --- |
| C[C@H]1CN([C@@H](C)CO)C(=O)c2c(c3ccccc3n2C)-c2ccccc2CO[C@@H]1CN(C)C(=O)c1ccc(F)cc1 | inactive |
| NC[C@H]1OB(O)c2c(OCCCO)cccc21 | inactive |
| C[C@@H]1CN([C@H](C)CO)S(=O)(=O)c2ccc(C#CCN(C)C)cc2O[C@H]1CN(C)C(=O)Nc1ccccc1F | inactive |
| CO[C@H]1CN(C)C(=O)c2ccc(NS(C)(=O)=O)cc2OC[C@@H](C)N(C(=O)C2CCOCC2)C[C@@H]1C | inactive |
| O=C(O)CN1CCCCCC1=O | inactive |
| CC(C)(O)C1CCC(C)(C2C(O)CC3(C)C4CC(OC5OC(CO)C(O)C(O)C5O)C5C(C)(C)C(OC6OCC(O)C(O)C6O)CCC56CC46CCC23C)O1 (stereo not given) | inactive |
| CC(=O)N(O)CCCCNC(=O)CCC(=O)N(O)CCCCCNC(=O)CCC(=O)N(O)CCCCCN | inactive |
| Cc1ccc(S(=O)(=O)Nc2ccc3c(c2)C(=O)N([C@@H](C)CO)C[C@@H](C)[C@@H](CN(C)C(=O)Nc2cccc4ccccc24)OCCCC[C@H](C)O3)cc1 | inactive |
| Cc1noc(C)c1NC(=O)N(C)C[C@H]1OCCCC[C@H](C)Oc2ccc(NS(=O)(=O)c3ccccc3)cc2C(=O)N([C@@H](C)CO)C[C@@H]1C | inactive |
| Cc1ccc(S(=O)(=O)N2C[C@H](O)COC[C@@H]3O[C@@H](CC(=O)NCc4ccc5c(c4)OCO5)CC[C@H]32)cc1 | inactive |
| C1CC(N2CCNCC2)C1 | inactive |
| CC(C)NC(=O)N(C)C[C@H]1Oc2ccc(NC(=O)Cc3ccccc3)cc2CC(=O)N([C@H](C)CO)C[C@H]1C | inactive |
| C[C@@H]1CN([C@H](C)CO)C(=O)c2cccc(NC(=O)c3ccc(-c4nccs4)cc3)c2O[C@H]1CN(C)C(=O)Nc1ccc2c(c1)OCO2 | inactive |
| COCCCNC(=O)[C@@]1(Cc2ccccc2I)c2ccccc2C(=O)N(Cc2ccccc2OC)[C@H]1c1ccc(CO)cc1 | inactive |
| CCCNS(=O)(=O)c1c[nH]c(C(=O)OC)c1 | inactive |
| Cc1ccc(S(=O)(=O)Nc2ccc3c(c2)C(=O)N([C@H](C)CO)C[C@H](C)[C@H](CN(C)C(=O)Cc2ccccc2)OCCCC[C@H](C)O3)cc1 | inactive |
| C[C@@H]1CN([C@@H](C)CO)C(=O)c2cc(NC(=O)Cc3ccccc3)ccc2O[C@@H](C)CCCCO[C@@H]1CN(C)Cc1ccccc1 | inactive |
| C[C@@H]1CCCCO[C@H](CN(C)Cc2ccc(C(=O)O)cc2)[C@H](C)CN([C@H](C)CO)C(=O)c2cc(NC(=O)Nc3cccc4ccccc34)ccc2O1 | inactive |
| CC(C)NC(=O)N(C)C[C@H]1Oc2ccc(NS(=O)(=O)c3ccc(F)cc3)cc2C(=O)N([C@@H](C)CO)C[C@H]1C | inactive |
| C[C@H]1CN([C@@H](C)CO)C(=O)Cc2cc(NC(=O)NC3CCCCC3)ccc2O[C@@H]1CN(C)C(=O)Nc1cccc2ccccc12 | inactive |

| SMILES | cytotoxicity call |
| --- | --- |
| C[C@H]1CN([C@@H](C)CO)C(=O)c2cc(NC(=O)Nc3ccc(F)cc3)ccc2O[C@H]1CN(C)Cc1ccc(Cl)c(Cl)c1 | inactive |
| C[C@@H]1CCCCO[C@@H](CN(C)C(=O)Cc2ccccc2)[C@@H](C)CN([C@@H](C)CO)C(=O)c2cc(NS(=O)(=O)c3ccc(Cl)cc3)ccc2O1 | inactive |
| Cc1noc(C)c1NC(=O)Nc1cccc2c1O[C@@H](CN(C)Cc1ccc(Cl)c(Cl)c1)[C@@H](C)CN([C@@H](C)CO)C2=O | inactive |
| COc1cccc(S(=O)(=O)Nc2ccc3c(c2)[C@@H]2C[C@@H](CC(=O)NCCc4ccccc4)O[C@@H](CO)[C@@H]2O3)c1 | inactive |
| C[C@@H]1CCCCO[C@H](CN(C)S(=O)(=O)c2ccc(Cl)cc2)[C@H](C)CN([C@@H](C)CO)C(=O)c2cc(NC(=O)Nc3ccc(F)cc3)ccc2O1 | inactive |
| O=C(NC1CC1)[C@@H]1c2ccccc2C(=O)N(Cc2cc(C(F)(F)F)cc(C(F)(F)F)c2)[C@H]1c1ccc(CO)cc1 | inactive |
| COc1ccc(NC(=O)Nc2ccc3c(c2)C(=O)N([C@H](C)CO)C[C@H](C)[C@@H](CN(C)C(=O)CCC(F)(F)F)OCCCC[C@@H](C)O3)cc1 | inactive |
| O=C(C1=C[C@@H](c2ccc(Br)cc2)C[C@@H](OCc2ccc(CO)cc2)O1)N1CCN(Cc2ccccc2)CC1 | inactive |
| C[C@H](CO)N1C[C@H](C)[C@@H](CN(C)Cc2ccncc2)Oc2ccc(NC(=O)Cn3cnnn3)cc2C1=O | inactive |
| Cc1noc(C)c1NC(=O)Nc1ccc2c(c1)C(=O)N([C@@H](C)CO)C[C@@H](C)[C@@H](CN(C)C(=O)Nc1ccc(F)cc1)OCCCC[C@@H](C)O2 | inactive |
| C[C@H]1CN([C@@H](C)CO)C(=O)c2cc(C#Cc3ccc(F)cc3)cnc2O[C@H]1CN(C)Cc1ccccn1 | inactive |
| CC(C)NC(=O)N(C)C[C@H]1Oc2c(NS(=O)(=O)c3ccc(F)cc3)cccc2C(=O)N([C@H](C)CO)C[C@@H]1C | inactive |
| C[C@H](CO)N1C[C@H](C)[C@H](CN(C)S(=O)(=O)c2cn(C)cn2)Oc2ccc(NC(=O)CCCN(C)C)cc2CC1=O | inactive |
| C[C@H]1CCCCO[C@H](CN(C)C(=O)CCC(F)(F)F)[C@@H](C)CN([C@@H](C)CO)C(=O)c2cc(NS(=O)(=O)c3ccccc3)ccc2O1 | inactive |
| COc1cc(O)c2c(=O)cc(C)oc2c1CC=C(C)C | inactive |
| C[C@H](CO)N1C[C@H](C)[C@@H](CN(C)C(=O)Nc2ccc(C(F)(F)F)cc2)OCCCC[C@H](C)Oc2ccc(NS(=O)(=O)c3ccc(F)cc3)cc2C1=O | inactive |
| Cc1noc(C)c1S(=O)(=O)Nc1ccc2c(c1)C(=O)N([C@H](C)CO)C[C@@H](C)[C@H](CN(C)CC1CC1)O2 | inactive |
| C[C@@H]1CN([C@H](C)CO)C(=O)c2cccc(NC(=O)C3CC3)c2O[C@H]1CN(C)S(=O)(=O)c1ccccc1 | inactive |
| COc1ccc(-c2cnc3c(c2)C(=O)N([C@H](C)CO)C[C@H](C)[C@H](CN(C)S(=O)(=O)c2ccc(C#N)cc2)O3)cc1 | inactive |
| C[C@@H]1CN([C@H](C)CO)C(=O)c2cc(C3=CCCC3)cnc2O[C@H]1CN(C)S(=O)(=O)c1cn(C)cn1 | inactive |
